Our source for the relative cell viability values is the supplement of paper PMC10670038.

Where a name gives a salt, the structure may show the parent alone. ± gives the standard deviation of the averaged measurements. Whole data set: some 2,000 compounds, median “relative cell viability vs DMSO, compound alone” near 1.1, cut for the lowest 2% near 0.29. The list shows a part of the results.

The test system of this test is TE10. The test can be described thus: relative cell viability vs DMSO, compound alone (fraction); TE10 is an esophageal squamous carcinoma line; higher = less cytotoxic. As to conditions: 2 µM; 48 h. The method, then:
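TE10 ESCC cells (1,000/well, 384-well plates) were treated with Selleck bioactive library compounds at 2 uM alone for 48 h. Viability was read by CellTiter-Glo and expressed relative to DMSO wells. Two technical replicates (A, B).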
In turn, `CO[C@H]1C[C@@H]2CC[C@@H](C)[C@@](O)(O2)C(=O)C(=O)N2CCCC[C@H]2C(=O)O[C@H]([C@H](C)C[C@@H]2CC[C@@H](OCCO)[C@H](OC)C2)CC(=O)[C@H](C)/C=C(\C)[C@@H](O)[C@@H](OC)C(=O)[C@H](C)C[C@H](C)/C=C/C=C/C=C/1C` [Everolimus (RAD001)] yielded a relative cell viability of 0.787 ± 0.044.
The value for `Fc1ccc(Cl)cc1-c1nc(Nc2ccncc2)c2nccnc2n1` was 1.11 ± 0.049; that for `Nc1ccn([C@@H]2O[C@H](CO)[C@@H](O)C2(F)F)c(=O)n1` [Gemcitabine] was 0.964 ± 0.038; that for `COc1ccccc1N1CCN(CCN(C(=O)C2CCCCC2)c2ccccn2)CC1` was 1.08 ± 0.025.
In the case of `CC(=O)O[C@@]12CO[C@@H]1C[C@H](O)[C@@]1(C)C(=O)[C@H](O)C3=C(C)[C@@H](OC(=O)[C@H](O)[C@@H](NC(=O)OC(C)(C)C)c4ccccc4)C[C@@](O)([C@@H](OC(=O)c4ccccc4)[C@H]21)C3(C)C` [Docetaxel] it was 0.664 ± 0.065.
The value for `CC(=O)O[C@@]12CO[C@@H]1C[C@H](O)[C@@]1(C)C(=O)[C@H](O)C3=C(C)[C@@H](OC(=O)[C@H](O)[C@@H](NC(=O)OC(C)(C)C)c4ccccc4)C[C@@](O)([C@@H](OC(=O)c4ccccc4)[C@H]21)C3(C)C` [Docetaxel Trihydrate] was 0.783 ± 0.072; that for `Nc1cccc2c1C(=O)N(C1CCC(=O)NC1=O)C2=O` (stereo unspecified) [Pomalidomide] was 0.98 ± 0.053; that for `Oc1ccc(OC2CCCCO2)cc1` (stereo unspecified) [Deoxyarbutin] was 0.918 ± 0.11.
Consider `COc1cc(C(=O)O)ccc1NC(=O)[C@@H]1N[C@@H](CC(C)(C)C)[C@](C#N)(c2ccc(Cl)cc2F)[C@H]1c1cccc(Cl)c1F` [Idasanutlin (RG-7388)], for which the relative cell viability was found to be 0.928 ± 0.079.
The value for `O=C(O)C(O)Cc1ccc(O)c(O)c1` (stereo unspecified) [Sodium Danshensu] was 0.696 ± 0.044; that for `N[C@@H](Cc1cc(I)c(Oc2cc(I)c(O)c(I)c2)c(I)c1)C(=O)O` [L-Thyroxine] was 1.12 ± 0.021.
In the case of `CC1(C)CCC(C)(C)c2cc(NC(=O)c3ccc(C(=O)O)cc3)ccc21` [Tamibarotene] it was 1.13 ± 0.035; in that of `O=C([C@@H](Cc1cccc(C(F)(F)F)c1)NS(=O)(=O)c1cc(F)c2c(c1)CCNC2)N1CCCC1`, 1.1 ± 0.028.
In the case of `Nc1nc(Cl)nc2c1ncn2[C@H]1C[C@H](O)[C@@H](CO)O1` [Cladribine] it was 1.4 ± 0.087.
On to `O=C(C=Cc1ccccc1)NC(NC(=S)Nc1ccc(Cl)cc1)C(Cl)(Cl)Cl` (stereo unspecified), for which the relative cell viability turned out to be 1.07 ± 0.03.
In the case of `OCCOCCN1CCN(C2=Nc3ccccc3Sc3ccccc32)CC1` [Quetiapine Fumarate] it was 1.079 ± 0.0073.
In the case of `Cc1nc(Nc2cnn(C3CCNCC3)c2)nc2c1N(C)C(=O)c1cc3ccccc3cc1N2C` it was 1.21 ± 0.045.
The value for `CC1(C)S[C@@H]2[C@H](NC(=O)[C@H](N)c3ccc(O)cc3)C(=O)N2[C@H]1C(=O)O` [Amoxicillin Sodium] was 1.09 ± 0.024; that for `CC1(C)S[C@@H]2[C@H](NC(=O)[C@H](N)c3ccc(O)cc3)C(=O)N2[C@H]1C(=O)O` [Amoxicillin] was 0.9126 ± 0.0014; that for `Cc1cc(C(=O)NOCCO)c(Nc2ccc(I)cc2F)n(C)c1=O` was 0.579 ± 0.024.
In turn, `COc1cccc2c1C(=O)c1c(O)c3c(c(O)c1C2=O)C[C@@](O)(C(=O)CO)C[C@@H]3O[C@H]1C[C@H](N)[C@H](O)[C@H](C)O1` [Doxorubicin (Adriamycin)] came in with a relative cell viability of 0.3423 ± 0.00049.
In the case of `Cc1nc2ccc(-n3ncc(C(=O)c4cc5ccccc5[nH]4)c3N)cc2[nH]1` it was 0.93 ± 0.044.
The value for `CCCCC(=O)O[C@H]1CC[C@H]2[C@@H]3CCc4cc(O)ccc4[C@H]3CC[C@]12C` [Estradiol valerate] was 1.07 ± 0.1; that for `N#Cc1c(O)c2c(-c3ccc(-c4ccccc4O)cc3)csc2[nH]c1=O` was 1.09 ± 0.053; that for `Cc1[nH]c2ccccc2c1CCNC(=O)c1cccs1` was 1.08 ± 0.069.
In the case of `N=C(N)c1ccc(OCCCCCOc2ccc(C(=N)N)cc2)cc1` [Pentamidine] it was 1.17 ± 0.025; in that of `Oc1ccc([C@H]2COc3cc(O)ccc3C2)cc1` [Equol], 1.08 ± 0.038; in that of `Fc1ccc(C(c2ccc(F)cc2)N2CCN(C/C=C/c3ccccc3)CC2)cc1` [Flunarizine 2HCl], 1.09 ± 0.044.
`O=c1cc(-c2cccc3c2Sc2ccccc2S3)oc(N2CCOCC2)c1` came in with a relative cell viability of 1.22 ± 0.014.
Consider `Cc1ccc(Nc2c(F)cccc2Cl)c(CC(=O)O)c1` [Lumiracoxib], for which the relative cell viability stood at 1.231 ± 0.0092.
In the case of `CCCc1cc(=O)[nH]c(=S)[nH]1` [Propylthiouracil] it was 1.08 ± 0.065; in that of `Cc1onc(-c2ccccc2)c1-c1ccc(S(N)(=O)=O)cc1` [Valdecoxib], 1.17 ± 0.047; in that of `O=C(Nc1ccccc1)c1cc([N+](=O)[O-])ccc1Cl`, 1.12 ± 0.038.
In the case of `C=C1C(=O)O[C@@H]2/C=C(\C)CC/C=C(\C)CC[C@@H]12` [Costunolide] it was 1.03 ± 0.07; in that of `CO/N=C(\C(=O)N[C@@H]1C(=O)N2C(C(=O)OCOC(=O)C(C)(C)C)=C(/C=C\c3scnc3C)CS[C@H]12)c1csc(N)n1` [Cefditoren Pivoxil], 0.991 ± 0.099; in that of `Cn1cnc(-c2cc3nccc(Oc4ccc(NC(=S)NC(=O)Cc5ccccc5)cc4F)c3s2)c1`, 1.11 ± 0.033.
In the case of `O=C(CCc1ccc(O)cc1)c1c(O)cc(O)cc1O[C@@H]1O[C@H](CO)[C@@H](O)[C@H](O)[C@H]1O` [Phlorizin] it was 1.16 ± 0.074; in that of `C=C[C@]1(C)C[C@@H](OC(=O)CS[C@@H]2C[C@H]3CC[C@@H](C2)N3C)[C@]2(C)[C@H](C)CC[C@]3(CCC(=O)[C@H]32)[C@@H](C)[C@@H]1O` [Retapamulin], 1.29 ± 0.028; in that of `CN(N=O)C(=O)NC1C(O)OC(CO)C(O)C1O` (stereo unspecified) [Streptozotocin (STZ)], 1.086 ± 0.0041.
In turn, `Oc1ncnc2[nH]ncc12` [Allopurinol] came in with a relative cell viability of 1.05 ± 0.072.
The value for `CN1CCN(Cc2ccc(NC(=O)Cc3ccc(Oc4cc(NC(=O)C5CC5)ncn4)cc3)cc2C(F)(F)F)CC1` was 0.7225 ± 0.0028.
The value for `C[C@]12CCC(=O)C=C1CC[C@@H]1[C@@H]2[C@@H](O)C[C@@]2(C)[C@H]1CC[C@]2(O)C(=O)CO` [Hydrocortisone] was 1.03 ± 0.013; that for `O=C(/C=C/c1ccc2ccccc2n1)c1ccncc1` was 0.685 ± 0.16; that for `CC(=O)Nc1ccccc1` [Acetanilide] was 0.976 ± 0.25.
The value for `Cc1cc(C(N)=O)ccc1-n1c(CCC(=O)O)ccc1-c1ccc(-n2ccnc2)cc1` was 1.07 ± 0.043; that for `CC(C(=O)O)c1ccc2c(c1)Cc1cccnc1O2` (stereo unspecified) [Pranoprofen] was 1.14 ± 0.06.
